The whole screen tested about 52,000 compounds, of which about 4,300 (8.3%) were called active. Rule as the data show it: active = survival mostly below about 52% (no sharp cut-off); inactive = mostly above about 56%. The list shows a part of the results.
system: DeltatarO mutant; assay: growth inhibition of S. aureus wild type versus tarO mutant, primary screen, teichoic acid synthesis inhibitors, RN4220, OD600 (AID 463173); conditions: OD600, 18 h, stronger effect = lower value, screened at 18.75 µg/mL (by protocol)

Row | SMILES | survival
1 | NS(=O)(=O)c1ccc(CCNc2nc3c(-c4cccc(F)c4)nnn3c3ccc(Cl)cc23)cc1 | inactive: 65%
2 | CCOc1ccccc1NC(=O)Cn1nnc2sc3c(c2c1=O)CCC(C(C)(C)C)C3 (stereo not drawn) | inactive: 106%
3 | Cc1oc(-c2ccc(Cl)cc2)nc1Cn1c(=O)cc(-c2ccccc2)c2c(C)nn(C)c21 | inactive: 88%
4 | Cc1ccc(-n2ncc3c(NCCC4=CCCCC4)ncnc32)cc1C | inactive: 119%
5 | c1ccc(NCc2cccnc2)cc1 | inactive: 89%
6 | O=C(CNS(=O)(=O)c1ccc(Br)s1)N1CCN(c2ccccc2F)CC1 | active: 36%
7 | CCOCCN1CCN(c2c3c(nc4cc(-c5cccc(C)c5)nn24)CCC3)CC1 | inactive: 74%
8 | Cc1nn(CC(=O)N2CCN(c3ccccc3)CC2)c(=O)c2cccn12 | inactive: 92%
9 | CCc1nn(CC(=O)NCc2cccc(OC)c2)c(=O)c2cc3cc(F)ccc3n12 | inactive: 76%
10 | Cc1ccc(-c2nc3c(cnn3-c3ccccc3)c(=O)n2-c2ccc(Cl)cc2)cc1 | active: 44%
11 | O=C(COCc1cc(-c2ccco2)on1)Nc1ccc(OC(F)(F)F)cc1 | inactive: 92%
12 | COc1cccc(OC)c1C(=O)Nc1ccc2c(c1)CCCN2S(=O)(=O)c1ccc(C)cc1 | inactive: 67%
13 | O=C(Cn1cc(S(=O)(=O)Cc2ccc(F)cc2)c2ccccc21)NCc1ccccc1 | inactive: 78%
14 | CCOc1ccccc1NC(=O)CSc1cc(=O)n(CC)c2ccccc12 | inactive: 72%
15 | CCOc1ccc(-c2cc(C(F)(F)F)c(C#N)c(SCC(=O)Nc3ccccc3)n2)cc1 | inactive: 61%
16 | CC(=O)c1cc(-c2ccccc2)n(CCC(=O)Nc2cc(C)cc(C)c2)c1C | inactive: 94%
17 | OC(c1ccc(Br)cc1)C12CN3CN(CN(C3)C1)C2 (stereo not drawn) | inactive: 91%
18 | O=C(O)CCC(=O)Nc1cccc(C(=O)N2CCCCC2)c1 | inactive: 104%
19 | COc1ccc(-c2onc(C)c2C)cc1S(=O)(=O)N1CCC(C)CC1 | inactive: 70%
20 | CCc1ccc(NC(=O)c2ccc(CN3C(=O)C(C)=C(c4ccc(C)cc4)S3(=O)=O)cc2)cc1 | inactive: 75%
21 | COc1cccc(-c2nc(C(N)=O)c3c(n2)n(-c2ccc4c(c2)OCO4)c(=O)n3C)c1OC | inactive: 80%
22 | Cn1c(C(=O)NCc2cccc(F)c2)cc2cc(S(=O)(=O)N3CCCCC3)ccc21 | inactive: 81%

Row | SMILES | survival
23 | CSc1nc2c([nH]c3ccccc32)c(=O)n1-c1ccc(F)cc1 | inactive: 89%
24 | CCC(C)NC(=O)c1sc2nc(C)c(C(=O)Nc3ccc(Cl)cc3)c(-c3ccc(Br)cc3)c2c1N (stereo not drawn) | inactive: 70%
25 | COc1ccc2cc(CNc3ccc(OC)c(OC)c3)c(=O)n(CC(=O)Nc3ccc(C)cc3)c2c1 | inactive: 74%
26 | Cc1cccc(NC(=O)CSc2nc(C)c(Cc3ccccc3)c(=O)[nH]2)c1 | active: 18%
27 | CSc1nnc(-c2cc3ccccc3cc2O)n1C | inactive: 90%
28 | CCCNC(=O)CN1C(=O)c2cccnc2Sc2ccccc21 | inactive: 61%
29 | Cc1ccc(C)c(N2CCN(C(=O)c3c4c(nc5ccccc35)C(=O)N(C3CCCCC3)C4)CC2)c1 | inactive: 101%
30 | COc1ccc(-c2nc(CNS(=O)(=O)c3ccc(F)cc3)cs2)cc1 | inactive: 118%
31 | CCOc1ccc2[nH]c(=O)c(CN(CCc3ccccc3)C(=O)N(C)C)cc2c1 | inactive: 86%
32 | COc1ccccc1CNC(=O)C(=O)NCC(c1ccc2c(c1)OCO2)N1CCOCC1 (stereo not drawn) | inactive: 102%
33 | CCc1ccc(CN2CCc3nc(Nc4ccc5c(c4)OCCO5)ncc3C2)cc1 | inactive: 97%
34 | COc1cccc(NC(=O)CSc2nncn2N)c1 | inactive: 79%
35 | CC(=O)c1cccc(NC(=O)C2=CC(c3ccco3)=NS(=O)(=O)N2C)c1 | inactive: 90%
36 | COc1ccc(Nc2nnc(-c3ccc(C)c(S(N)(=O)=O)c3)c3ccccc23)cc1 | inactive: 70%
37 | CC(Sc1ccccc1)C(=O)N/N=C/c1cccnc1 (stereo not drawn) | inactive: 106%
38 | CCc1ccc2nc(N3CCN(C(=O)c4ccco4)CC3)sc2c1 | inactive: 86%
39 | COc1ccc(CCNc2oc(COc3ccc(Cl)cc3)nc2C#N)cc1OC | inactive: 74%
40 | Cc1ccc(NC(=O)Cn2c(=O)oc3cc(S(=O)(=O)N4CCCC4)ccc32)cc1F | inactive: 113%
41 | Cc1nc2ccc(S(=O)(=O)CCC(=O)Nc3ccccc3C)cc2s1 | inactive: 50%
42 | CCOC(=O)c1ccc(NC(=O)C2CCCN(c3ncnc4onc(C)c34)C2)cc1 (stereo not drawn) | inactive: 67%
43 | COc1ccccc1N1CCN(CCCNC(=O)Cn2ncc3c([nH]c4ccccc43)c2=O)CC1 | inactive: 55%
44 | O=C(CC1NCCNC1=O)Nc1cccc(F)c1 (stereo not drawn) | inactive: 79%

Row | SMILES | survival
45 | Cc1ccc2ncc3c(-c4ccccc4)nn(CC(=O)NC4CCCCC4)c3c2c1 | inactive: 115%
46 | COc1ccc(NC(=O)CSC2=Nc3ccccc3C3=NC(CCC(=O)NCc4ccco4)C(=O)N23)cc1 (stereo not drawn) | inactive: 67%
47 | CC1(C)Cc2nc3sc4c(N5CCOCC5)ncnc4c3cc2CO1 | inactive: 104%
48 | Clc1ccc(CSc2nc(NCCc3ccccc3)c3ccccc3n2)cc1 | inactive: 81%
49 | Cc1cc(NC(=O)C2CCCN(S(=O)(=O)c3cccc4nonc34)C2)ccc1Br (stereo not drawn) | inactive: 87%
50 | COc1ccc(OC)c(CNCc2c(C(=O)O)n(Cc3ccccc3)c3cc(OC)ccc23)c1 | inactive: 77%
51 | CCC(=O)N1CCc2cc(S(=O)(=O)NC(CC(C)C)C(=O)Nc3ccc(CC)cc3)ccc21 (stereo not drawn) | active: 60%
52 | O=C(CN1N=C(c2ccc(Cl)cc2)CCC1=O)NCc1ccc(F)cc1 | inactive: 72%
53 | CCc1cccc(C)c1NC(=O)c1cnn(-c2ccc(F)cc2)c1-n1cccc1 | inactive: 49%
54 | CSc1nn(Cc2cccc(F)c2)c(N(C(C)=O)C(C)=O)c1S(=O)(=O)c1ccccc1 | inactive: 84%
55 | O=C(CN1CCCCC1)N1CCCc2ccccc21 | inactive: 110%
56 | Cc1cccc2sc(N3CCN(C(=O)c4ccco4)CC3)nc12 | inactive: 96%
57 | CCOc1ccc(S(=O)(=O)Nc2ccc(-c3ccc(N4CCCC4)nn3)cc2)cc1 | inactive: 96%
58 | Cc1cccc(S(=O)(=O)c2cn(Cc3ccccc3)c3cc(N4CCCC(C)C4)c(F)cc3c2=O)c1 (stereo not drawn) | inactive: 80%
59 | Cc1ccc(CNC(=O)C2CCN(S(=O)(=O)c3ccc4c(c3)oc(=O)n4C)CC2)cc1 | inactive: 107%
60 | CCc1ccc(-n2nc(C)c3c(C)cc(=O)n(CC(=O)Nc4ccc(OC)c(OC)c4)c32)cc1 | inactive: 84%
61 | CCOC(=O)c1c(C)[nH]c(C)c1S(=O)(=O)N1CCCC(C(=O)N2CCN(c3cc(C)ccc3C)CC2)C1 (stereo not drawn) | inactive: 84%
62 | Cc1ccc(-c2cc(C(F)(F)F)n3nc(C(=O)Nc4ccc(C#N)cc4)cc3n2)cc1 | inactive: 81%
63 | CCOc1ccccc1CNC(=O)CCCN1C(=O)CCn2nc(-c3cccn3C)cc21 | inactive: 84%
64 | CCN1C(=O)N(C)C2C1N(C)C(=O)N2CC (stereo not drawn) | inactive: 72%
65 | Cc1cc(C)c(NC(=O)CCn2nnc3ccccc32)c(C)c1 | inactive: 101%
66 | COc1ccc(C(=O)N2CCCCC2CCN2CCCCC2)cc1 (stereo not drawn) | inactive: 82%

Row | SMILES | survival
67 | COc1ccc(Cl)cc1NC(=O)[C@H]1O[C@@H]2OC(C)(C)O[C@@H]2[C@H]2OC(C)(C)O[C@H]21 | inactive: 83%
68 | O=S(=O)(c1cccs1)N1CCN(c2ccc(Cl)cc2)CC1 | inactive: 72%
69 | CCOc1ccc(CNC(=O)Cn2ncc3c(=O)oc4ccc(C)cc4c32)cc1 | inactive: 78%
70 | Cc1ccc(C)c(CN2C(=O)c3ccccc3S(=O)(=O)c3ccc(C(=O)N4CCOCC4)cc32)c1 | inactive: 113%
71 | COc1ccc(Cl)cc1N(C)C(=O)Cn1cnc2sc(C)c(S(=O)(=O)N3CCN(c4ncccn4)CC3)c2c1=O | inactive: 61%
72 | CCC(CC)C(=O)Nc1ccccc1C(=O)OCc1cc(=O)n2nc(C3CCCCC3)sc2n1 | inactive: 92%
73 | CC(C)NC(=O)CSc1nnc(Cc2ccccc2)n1Cc1ccco1 | active: 40%
74 | COC(=O)c1ccc(NC(=O)N2CCN(c3nnc(C)c4c(C)n(-c5ccccc5)nc34)CC2)cc1 | inactive: 65%
75 | O=C(Cn1c(=O)c(C(F)(F)F)nc2ccccc21)Nc1ccc(Br)cc1F | inactive: 102%
76 | COc1ccc(S(=O)(=O)N2CCN(c3ccccc3)CC2)cc1-c1noc(C)n1 | inactive: 57%
77 | Cc1ccccc1Cn1cc(CCC(=O)NCc2cccc(Br)c2)c2ccccc21 | inactive: 115%
78 | O=C(c1cnc2c(c1)COc1ccccc1-2)c1ccccc1O | active: 3%
79 | Cn1nc(-c2ccccc2F)c2cc(C(=O)Nc3cc(F)ccc3F)sc21 | inactive: 84%
80 | CC(C)(C)NC(=O)CSc1nc(-c2ccc(F)cc2)cc(C(F)(F)F)n1 | inactive: 72%
81 | COc1ccc(S(=O)(=O)NCC(c2ccco2)N2CCN(c3ccc(F)cc3)CC2)cc1 (stereo not drawn) | inactive: 84%
82 | CC(C)c1cnc2c(c1SCC(=O)c1ccccc1)c(=O)n(C)c(=O)n2C | inactive: 95%
83 | O=C(NCc1ccccc1)c1ccc2c(c1)N(Cc1ccccc1)C(=O)c1ccccc1S2(=O)=O | inactive: 76%
84 | Cc1cccc(C(=O)Nc2ccc(C(=O)OCc3cc(=O)n4c(C)csc4n3)cc2)c1 | inactive: 128%
85 | CCCCOc1cccc(C(=O)N(Cc2ccc(Br)o2)C2CCS(=O)(=O)C2)c1 (stereo not drawn) | inactive: 81%
86 | NC(=O)CSc1oc(-c2cccs2)nc1S(=O)(=O)c1ccc(Br)cc1 | inactive: 119%
87 | O=C(Nc1cccc(Cl)c1)C1CCN(S(=O)(=O)Cc2ccccc2)CC1 | inactive: 55%
88 | Cc1ccc(NC(=O)CCn2cnc3ccccc3c2=O)cc1C | inactive: 81%

Source: PubChem BioAssay AID463173 (ICCB-Longwood Screening Facility, Harvard Medical School, 2010)
